# Data published in PMC6212790.
# The list shows a part of the results. At the low end of the ranking, values are background and their order means little.
# Molecular target: T1, GST-Rok-C97-191 (UniProt O34857)
# T1 sequence: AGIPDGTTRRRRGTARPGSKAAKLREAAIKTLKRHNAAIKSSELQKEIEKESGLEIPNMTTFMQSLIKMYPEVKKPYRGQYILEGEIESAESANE
# Assay: protein binding microarray;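 note: rank score from −0.5 (least bound) to 0.5 (best bound)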
# Conditions: Rok is a gene silencer of Bacillus subtilis; high values mean tight binding; most listed sequences are background and not binding sites; double strand, one strand shown
row,Sequence,binding signal
1,AGGGCAGA,-0.214 E-score
2,CAAGCCAG,-0.34 E-score
3,CATACCCG,-0.13 E-score
4,GTATTGAC,0.246 E-score
5,CCTTGCAG,-0.179 E-score
6,ACGTCAAA,-0.0839 E-score
7,CCGTACAC,-0.0666 E-score
8,CAAGTGAC,-0.0247 E-score
9,GGCACGCA,-0.238 E-score
10,AAGGACCT,-0.243 E-score
11,ATCACGGG,-0.127 E-score
12,ACTCTGCT,-0.155 E-score
13,CCAGCGAC,0.0277 E-score
14,GCGCGGCA,-0.145 E-score
15,CTCCATAA,-0.175 E-score
16,TGTTTGAA,-0.0525 E-score
17,ATCGCTGG,-0.21 E-score
18,GCCGAAGC,-0.177 E-score
19,CCCCGGAC,-0.242 E-score
20,GAAAAGTA,0.308 E-score
21,AAATGGAA,-0.144 E-score
22,AGTTGACG,-0.0683 E-score

row,Sequence,binding signal
1,AAGATATG,0.117 E-score
2,ACGCAACA,0.0565 E-score
3,ACCTAAAT,0.179 E-score
4,AAAACCAG,-0.119 E-score
5,GTGACGAA,-0.0201 E-score
6,AGCCTCTC,-0.126 E-score
7,GAAGGCTA,-0.0559 E-score
8,AACAGTAA,0.285 E-score
9,CTTAGTCA,0.135 E-score
10,CCACCTTC,-0.262 E-score
11,TGTGAAAA,0.102 E-score
12,CGCATACA,0.138 E-score
13,CTGCCACA,-0.24 E-score
14,AGCTTCGC,-0.034 E-score
15,GTTAAGTA,0.215 E-score
16,AAACCGAT,0.0643 E-score
17,ATTGCCGC,-0.0476 E-score
18,AATTATAT,0.398 E-score
19,ATACTGAT,0.166 E-score
20,AAATGACC,0.0778 E-score
21,AGCGATGC,-0.0179 E-score
22,GAAGAGAC,0.0606 E-score

row,Sequence,binding signal
1,ACGCGTCA,-0.0653 E-score
2,CCGTGAAG,-0.225 E-score
3,GGGACGGA,-0.301 E-score
4,ATAGTATG,0.316 E-score
5,CACTATTA,0.202 E-score
6,GCCTTACC,-0.221 E-score
7,GTCTTGGA,0.0254 E-score
8,GTATAGAC,0.0493 E-score
9,ATGCACTA,-0.185 E-score
10,AGAAATAT,0.346 E-score
11,ACACCCTA,0.118 E-score
12,ACCCACCA,-0.187 E-score
13,AACGTTGA,0.0335 E-score
14,GAAAACGC,-0.192 E-score
15,GTAATGTA,0.339 E-score
16,CAGAAGTA,0.207 E-score
17,CCGATAAA,0.111 E-score
18,ACGGATCG,0.126 E-score
19,AATGAGTA,0.142 E-score
20,ATGTATCG,0.249 E-score
21,AGGCGGCA,-0.32 E-score
22,ATCCTTCC,-0.0429 E-score

row,Sequence,binding signal
1,GTGAGGAA,-0.0466 E-score
2,TCCCTCAA,-0.0531 E-score
3,GCAGTCTA,0.0117 E-score
4,AGCGAGTC,-0.212 E-score
5,AGGAACCA,0.128 E-score
6,CATCTGCC,-0.245 E-score
7,ACGCATGG,-0.0471 E-score
8,CAGTTGGA,-0.0642 E-score
9,GGTGGTTA,-0.216 E-score
10,TATAATGA,0.205 E-score
11,CACACTCG,-0.00706 E-score
12,GCCCTAGA,-0.198 E-score
13,ATTGGCTA,0.00334 E-score
14,ATTACGCG,-0.0188 E-score
15,AAGTACCT,0.312 E-score
16,ACAAGTCG,-0.111 E-score
17,GCATTAAC,0.00553 E-score
18,CGCCTCGC,-0.277 E-score
19,AGAATCGC,0.183 E-score
20,GGGCCACC,-0.312 E-score
21,AACAGTTC,0.116 E-score
22,GTCTACTA,0.29 E-score

row,Sequence,binding signal
1,GGATCAAC,-0.0565 E-score
2,ACCTTACT,0.0878 E-score
3,ACGACCCA,-0.0447 E-score
4,GACGTTTA,-0.0493 E-score
5,ACTCGAAT,-0.0295 E-score
6,GAACAATC,-0.0282 E-score
7,TAAGCATA,0.00925 E-score
8,AGTTAGCA,0.218 E-score
9,CTGTCTAA,-0.0901 E-score
10,CCGAAAGA,-0.158 E-score
11,ATGAATAA,0.219 E-score
12,CCAATACC,0.0804 E-score
13,CTGATAGA,0.0972 E-score
14,AAAGTACA,0.366 E-score
15,AGCGCTCA,0.00935 E-score
16,ATGCAACA,-0.0342 E-score
17,CTCGAGTC,-0.205 E-score
18,GAGCTTGA,-0.0815 E-score
19,ATTTTTCC,0.122 E-score
20,CCCGCCGG,-0.235 E-score
21,CACTTTGA,-0.0655 E-score
